# Experimental data: PubChem BioAssay AID686978 (National Center for Advancing Translational Sciences (NCATS), 2013)
# The campaign covered roughly 420,000 compounds. About 64,000 (15%) were called active. The inconclusive results got no clear call from the source; some entries with a clear call stand among them for comparison. Calls follow the shape of the dose curve; as a rule, active = well fitted inhibition curve with a large enough effect; inconclusive = small, poorly fitted or top-dose-only effect; inactive = flat fitted curve, though single readings scatter. No potency is given beside an inconclusive call; the fits are too rough.
# Experiment: qHTS for Inhibitors of human tyrosyl-DNA phosphodiesterase 1 (TDP1): qHTS in cells in absence of CPT; also: nearly all actives have a fitted effect of over 55% in size
# Settings: DT40 Tdp1-/- hTDP1 cells, no CPT, ATP luminescence, 48 h; activity change, negative = growth inhibition: at 46.2 µM (top of the series) unless noted
# Outline: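 Chicken DT40 Tdp1-/- cells complemented with human TDP1, screened without camptothecin (DMSO vehicle only), 400 cells/well. Compounds pin-transferred, cells incubated at 37 °C for at least 48 hr. Growth read as ATP-dependent luminescence (CellTiter-Glo, 30 min at RT).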
# % is scaled to controls: 0 for no effect and ±100 for the full control effect; potency is read from the fitted curve at half-maximal effect; tags tell the direction and shape of the fitted curve.
SMILES,"activity change, negative = growth inhibition",Potency
O=C(CCCn1c(=O)oc2ccccc21)N1CCN(c2ccccn2)CC1,inactive: -2.43%,
CC(=O)Nc1c(C)nn(-c2ccc([N+](=O)[O-])cc2)c1C,inactive: 15%,
CC1CCCN(S(=O)(=O)c2ccc(S(=O)(=O)N3CCCC3)cc2)C1 (stereo not drawn),inactive: 0.0586%,
CC(C)(C)c1ccc(-c2cc(C(=O)NNC(=O)Nc3ccccc3)c3ccccc3n2)cc1,,active: 20.6 µM
O=C(NNc1cc(Cl)cc(Cl)c1)c1c(F)cccc1Cl,inconclusive: -33% [inhibitor],
O=C(NCc1cccc(Br)c1)C1CC(c2ccccc2C(F)(F)F)=NO1 (stereo not drawn),,active: 18.4 µM
CC(=O)c1ccc(NC(=O)C(C)OC(=O)c2ccc(NS(=O)(=O)c3ccc(F)c(F)c3)cc2)cc1 (stereo not drawn),inactive: -27.4%,
O=S(=O)(Nc1ccc(F)cc1Cl)c1ccc(-c2cnc(C3CC3)o2)cc1,,active: 0.731 µM
CCOC(=O)N1CCC(NCCNC(=O)c2ccc(F)c(F)c2)CC1,inactive: -13.2%,
CC1(C)CC(=O)c2sc(NS(=O)(=O)c3cc(Cl)ccc3Cl)nc2C1,inactive: 6.05%,
CC(C)CN1CCN(CCCOC(=O)Nc2cccc3ccccc23)CC1C (stereo not drawn),,"inconclusive [inhibitor, partial curve, poor fit]"
Cc1ccc(/C=C/C(=O)Nc2sc3c(c2C#N)CCCC3)o1,,"inconclusive [inhibitor, single point]"
CN(C1=C(N2CCOCC2)C(=O)c2ccccc2C1=O)c1ccccc1,,active: 16.4 µM
CN(C(=O)c1cccc(NC(=O)Cc2ccc(NC(=O)C3CCCN(C(=O)C4CCCCC4)C3)cc2)c1)C1CCC1 (stereo not drawn),,"inconclusive [inhibitor, single point]"
Cc1ccc2[nH]c(=O)c3cc(C(=O)N(C)Cc4ccco4)sc3c2c1,,"inconclusive [inhibitor, single point]"
CC(C)=CCC/C(C)=C/COc1ccc2ccc(=O)oc2c1,,"inconclusive [inhibitor, single point]"
COc1ccc(NC(=O)C2Cc3c(-c4cccc(NC(C)=O)c4)ccnc3O2)cc1 (stereo not drawn),,active: 3.26 µM
COC(=O)c1c(NC(=O)c2ccc(C)c(S(=O)(=O)Nc3ccccc3C)c2)sc2c1CCCC2,,"inconclusive [inhibitor, single point]"
CCOc1ccc(NC(=O)c2ccc(NC(=O)CSc3nc4ccccc4c(=O)[nH]3)cc2)cc1,inactive: 11.8%,
CCNc1ccccc1CP(=O)(c1ccccc1)c1ccccc1O (stereo not drawn),,active: 2.59 µM
COc1ccc2cc(-c3[nH]ncc3CN3CCCN(c4ccccc4)CC3)ccc2c1,,"inconclusive [inhibitor, single point]"
COc1cc(NC(=O)Cn2nc(-c3ccc(C)c(C)c3)ccc2=O)cc(OC)c1,,"inconclusive [inhibitor, partial curve]"
CC(C)COC(=O)Cc1c(O)c2ccccc2[nH]c1=O,,"inconclusive [inhibitor, single point]"
COC(=O)c1cc(C)ccc1OCc1ccc([N+](=O)[O-])cc1,inactive: -1.89%,
CCCc1nc2c(C)cc(Br)cn2c1Cc1cccc(F)c1,,"inconclusive [inhibitor, single point]"

SMILES,"activity change, negative = growth inhibition",Potency
Cc1ccc(S(=O)(=O)c2nc(S(C)(=O)=O)sc2NCc2ccccc2)cc1,,"inconclusive [inhibitor, single point]"
COc1ccc(CNS(=O)(=O)c2cc(-c3cc(C)no3)ccc2C)cc1OC,inactive: -21.2%,
CCN(CC)S(=O)(=O)c1ccc2c(c1)N(CC(=O)Nc1ccc(C)cc1C)C(=O)C1CCCN21 (stereo not drawn),,"inconclusive [inhibitor, single point]"
O=c1[nH]c(CSc2nc3ccccc3o2)nc2c1cnn2-c1ccccc1,inactive: -20.4%,
COc1ccc(C2=CC(c3cccc(C)c3)n3nnnc3N2)cc1 (stereo not drawn),,active: 16.4 µM
CS(=O)(=O)N(CC(=O)N/N=C/c1ccccc1C(=O)O)c1cccc(Cl)c1Cl,inactive: 0.108%,
CN1CCN(c2ncnc3scc(-c4ccccc4Cl)c23)CC1,,active: 9.2 µM
O=C(Nc1c(C(=O)N2CCN(c3ccccn3)CC2)oc2ccccc12)c1cccc([N+](=O)[O-])c1,,"inconclusive [inhibitor, single point]"
Nc1sc(Cc2ccccc2)cc1C(=O)NC1CCCCC1,,active: 14.6 µM
CSc1cccc(NC(=O)C2CC(=O)N(c3ccc4c(c3)OCCO4)C2)c1 (stereo not drawn),inactive: -29.2%,
O=C(CCN1CCc2ccccc2C1)Nc1ccccc1,inactive: -28.9%,
CC(=O)N1c2ccccc2[C@@H](C)[C@@H]1C,inactive: -9.9%,
Cc1cc(NC(=O)c2ccccc2F)n(-c2nc3ccccc3[nH]2)n1,,"inconclusive [inhibitor, single point]"
COc1ccc(N2CCN(C(=O)c3cc(C4CC4)nn3-c3ccccc3)CC2)cc1,,"inconclusive [inhibitor, partial curve]"
O=C(c1ccc(Br)cc1)N1CCN(c2ccccn2)CC1,,"inconclusive [inhibitor, single point]"
CCCn1c(N)c(C(=O)CN(C)CC(=O)Nc2ccccc2CC)c(=O)[nH]c1=O,,"inconclusive [inhibitor, partial curve]"
CCOc1ccc(C(=O)Nc2ccccc2N2CCOCC2)cc1,,"inconclusive [inhibitor, partial curve]"
O=C(Nc1ccncc1)Nc1ccc(F)cc1,,"inconclusive [inhibitor, single point]"
Cc1ccc(NC(=O)CN(C)Cc2ccc(Cl)cc2)cc1,,"inconclusive [inhibitor, single point]"
CC(=O)Nc1ccc2c3c(cccc13)CC2,inactive: -20.5%,
Cc1[nH]c2ccccc2c1[C@H]1[C@@H](CC#N)C1(C)C,,"inconclusive [inhibitor, partial curve]"
CCCCNC(=O)N1c2ccccc2CC1C (stereo not drawn),inactive: -6.77%,
COC(=O)C1=C(C)NC2=C(C(=O)CC(C)(C)C2)C1c1cn(Cc2ccc(Br)cc2)nc1-c1ccccc1 (stereo not drawn),,"inconclusive [inhibitor, single point]"
Nc1c(C(=O)Nc2ccccc2)c2nc3ccccc3nc2n1CCCN1CCOCC1,,"inconclusive [inhibitor, single point]"
CC(C)CNC(=O)c1cc2nc(C3CC3)cc(C(F)(F)F)n2n1,inconclusive: -30.3% [inhibitor],

SMILES,"activity change, negative = growth inhibition",Potency
O=C(NCC(F)(F)F)c1[nH]c(C(F)(F)F)nc1-c1ccccc1,inactive: -6.02%,
CN(C(=O)CN1C(=O)CCSc2ccc(S(=O)(=O)N3CCCC3)cc21)c1ccccc1,,"inconclusive [inhibitor, single point]"
C[C@H](CCC(=O)NCC(=O)O)[C@H]1CC[C@H]2[C@@H]3[C@H](O)C[C@@H]4C[C@H](O)CC[C@]4(C)[C@H]3C[C@H](O)[C@]12C,inconclusive: -31.1% [inhibitor],
COc1ccc(OCc2cc(C(=O)NCCCc3ccccc3)no2)c(Cl)c1,,"inconclusive [inhibitor, single point]"
Cc1cccc(C)c1OCc1nnc(NC(=O)CSc2ccc(Cl)cc2)s1,inconclusive: -30.7% [inhibitor],
CC1(C)CC(=O)C2=C(C1)N(CC1CCCO1)C(=O)NC2(C(F)(F)F)C(F)(F)F (stereo not drawn),inactive: -6.18%,
Cc1nn(-c2ccccc2)c2sc(C(=O)n3cccn3)cc12,inactive: -7.28%,
O=c1[nH]c2ccc(Br)cc2c(-c2ccccc2)c1CN1CCOCC1,,"inconclusive [inhibitor, single point]"
COc1ccc(S(=O)(=O)N(CC(=O)NCc2ccccc2)c2ccc(C)cc2)cc1OC,,active: 6.51 µM
CC(C)Cc1nnc(NC(=O)c2ccc([N+](=O)[O-])cc2)s1,inactive: -24%,
Cc1ccc(NC(=O)c2cccc(S(=O)(=O)N3CCCc4ccccc43)c2)nc1,,"inconclusive [inhibitor, single point]"
O=C(c1nn2c(C(F)(F)F)cc(-c3ccccc3)nc2c1Cl)N1CCN2CCCC2C1 (stereo not drawn),,"inconclusive [inhibitor, single point]"
CCC(C)OC(=O)/C(C#N)=C\c1ccc(-c2cccc(C(F)(F)F)c2)o1 (stereo not drawn),,"inconclusive [inhibitor, partial curve]"
O=C(NCCOc1ccc(F)cc1)c1ccccc1SCc1ccccc1,,"inconclusive [inhibitor, single point]"
COc1ccc(C(C)n2c(C)c3c(C)nnc(C)c3c2C)cc1 (stereo not drawn),,active: 23.1 µM
Cc1ccc2nc(Nc3ccc(Cl)cc3)c3nncn3c2c1,,"inconclusive [inhibitor, single point]"
Cc1cccc(C)c1Nc1nc2ccccc2nc1NS(=O)(=O)c1ccccc1,inactive: -14.8%,
Cc1oc2cc(O)cc(C)c2c(=O)c1-c1cnn(-c2ccccc2)c1,,"inconclusive [inhibitor, single point]"
c1ccc(COc2cccc(CNCc3cccs3)c2)cc1,,"inconclusive [inhibitor, partial curve, poor fit]"
Cn1c(=O)c(=O)n(C)c2cc(S(=O)(=O)CCC(=O)Nc3ccc(C(F)(F)F)cc3)ccc21,inactive: 15.8%,
[O-]/C(=C(\C(=S)NCc1ccccc1)[n+]1ccccc1)c1ccc(Cl)cc1,,"inconclusive [inhibitor, partial curve]"
Cc1ccc2nc(SCC(=O)N(CC(C)C)c3c(N)n(Cc4ccccc4)c(=O)[nH]c3=O)[nH]c2c1,inactive: 7%,
CCC(Cc1ccccc1)NC(=O)C1CCC(CNc2c(N3CCCC3)c(=O)c2=O)CC1 (stereo not drawn),inactive: -17.9%,
